Assay results reported in the supplement of paper PMC9542798.

What was measured:
Test in all cases: minimum inhibitory concentration
Ampicillin = compound: CC1(C)S[C@@H]2[C@H](NC(=O)[C@H](N)c3ccccc3)C(=O)N2[C@H]1C(=O)O [Ampicillin]
Protocol: (§1)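 Broth microdilution MIC per ISO 10932 on precoated VetMIC Lact-1 plates (tylosin, vancomycin and ampicillin plates prepared manually) against lactic acid bacteria and bifidobacteria isolates. Plates were read visually after 48 h anaerobic incubation (bifidobacteria 72 h; enterococci and staphylococci 24 h aerobic) at species-specific temperatures of 30 or 37 °C. Values prefixed with < or > are outside the tested dilution range.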

Clindamycin = compound: CCC[C@@H]1C[C@@H](C(=O)N[C@@H]([C@H]2O[C@H](SC)[C@H](O)[C@@H](O)[C@H]2O)[C@H](C)Cl)N(C)C1 [Clindamycin]
Protocol: as §1

Erythromycin = compound: CC[C@H]1OC(=O)[C@H](C)[C@@H](O[C@H]2C[C@@](C)(OC)[C@@H](O)[C@H](C)O2)[C@H](C)[C@@H](O[C@@H]2O[C@H](C)C[C@H](N(C)C)[C@H]2O)[C@](C)(O)C[C@@H](C)C(=O)[C@H](C)[C@@H](O)[C@]1(C)O [Erythromycin]
Protocol: as §1

Tetracycline = compound: CN(C)[C@@H]1C(O)=C(C(N)=O)C(=O)[C@@]2(O)C(O)=C3C(=O)c4c(O)cccc4[C@@](C)(O)[C@H]3C[C@@H]12 [Tetracycline]
Protocol: as §1

Gentamicin = compound: CNC(C)C1CCC(N)C(OC2C(N)CC(N)C(OC3OCC(C)(O)C(NC)C3O)C2O)O1 [Gentamicin]
Protocol: as §1

Streptomycin = compound: CN[C@@H]1[C@H](O[C@H]2[C@H](O[C@H]3[C@H](O)[C@@H](O)[C@H](N=C(N)N)[C@@H](O)[C@@H]3N=C(N)N)O[C@@H](C)[C@]2(O)C=O)O[C@@H](CO)[C@H](O)[C@H]1O [Streptomycin]
Protocol: as §1

Neomycin = compound: NC[C@@H]1O[C@H](O[C@H]2[C@@H](O)[C@H](O[C@@H]3[C@@H](O)[C@H](N)C[C@H](N)[C@H]3O[C@H]3O[C@H](CN)[C@@H](O)[C@H](O)[C@H]3N)O[C@@H]2CO)[C@H](N)[C@@H](O)[C@@H]1O [Neomycin]
Protocol: as §1

Kanamycin = compound: NC[C@H]1O[C@H](O[C@H]2[C@H](O)[C@@H](O[C@H]3O[C@H](CO)[C@@H](O)[C@H](N)[C@H]3O)[C@H](N)C[C@@H]2N)[C@H](O)[C@@H](O)[C@@H]1O [Kanamycin]
Protocol: as §1

Chloramphenicol = compound: O=C(N[C@H](CO)[C@H](O)c1ccc([N+](=O)[O-])cc1)C(Cl)Cl [Chloramphenicol]
Protocol: as §1
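Note: isolates derived from commercial starter, protective, probiotic or feed-additive cultures, from fermented products, from human gut mucosa or feces, and from human milk or colostrum.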

Test System | minimum inhibitory concentration (Ampicillin) [µg/mL] | minimum inhibitory concentration (Clindamycin) [µg/mL] | minimum inhibitory concentration (Erythromycin) [µg/mL] | minimum inhibitory concentration (Tetracycline) [µg/mL] | minimum inhibitory concentration (Gentamicin) [µg/mL] | minimum inhibitory concentration (Streptomycin) [µg/mL] | minimum inhibitory concentration (Neomycin) [µg/mL] | minimum inhibitory concentration (Kanamycin) [µg/mL] | minimum inhibitory concentration (Chloramphenicol) [µg/mL]
Lactiplantibacillus plantarum IM1288 (strain group: non-starter strains) | 1 | 0.06 | 0.5 | 32 | 8 | 64 | 32 | 256 | 16
Lacticaseibacillus casei IM1107 (strain group: non-starter strains) | 1 | 0.06 | 0.12 | 1 | 2 | 16 | 4 | 32 | 4
Lacticaseibacillus paracasei IM1118 (strain group: non-starter strains) | 2 | 0.25 | 0.12 | 1 | 4 | 32 | 4 | 64 | 4
Limosilactobacillus reuteri IM109 (strain group: feed additives) | 2 | 0.12 | 0.5 | 8 | 1 | 16 | 1 | 64 | 8
Loigolactobacillus coryniformis IM230 (strain group: feed additives) | 0.5 | 0.25 | 0.5 | 4 | 4 | 32 | 4 | 128 | 4
Lacticaseibacillus paracasei IM1015 (strain group: non-starter strains) | 1 | 0.12 | 0.25 | 1 | 2 | 16 | 4 | 32 | 4
Leuconostoc mesenteroides IM1359 (strain group: non-starter strains) | 2 | 0.12 | 0.25 | 2 | < 0.5 | 8 | < 0.5 | 8 | 4
Lactiplantibacillus plantarum IM1153 (strain group: non-starter strains) | 1 | 2 | 0.5 | 16 | 8 | 256 | 16 | 256 | 8
Lacticaseibacillus rhamnosus IM685 (strain group: human intestinal mucosa or faeces) | > 16 | 1 | 0.25 | 1 | 4 | 32 | 16 | 64 | 8
Lacticaseibacillus casei IM574 (strain group: probiotic strains) | 1 | 0.5 | 0.5 | 1 | 4 | 32 | 8 | 128 | 8
Lacticaseibacillus rhamnosus IM1284 (strain group: non-starter strains) | 1 | 1 | 0.25 | 1 | 2 | 2 | 8 | 64 | 4
Lacticaseibacillus paracasei IM696 (strain group: human intestinal mucosa or faeces) | 1 | 0.12 | 0.12 | 1 | 4 | 16 | 8 | 32 | 4
Lacticaseibacillus paracasei IM1140 (strain group: non-starter strains) | 4 | 0.12 | 0.12 | 1 | 1 | 8 | 1 | 16 | 4
Lacticaseibacillus paracasei IM1391 (strain group: probiotic strains) | 2 | 0.12 | 0.25 | 2 | 2 | 16 | 4 | 32 | 8
Limosilactobacillus fermentum IM945 (strain group: human milk or colostrum) | 0.5 | 0.12 | 0.25 | 8 | 2 | 32 | 2 | 64 | 8
Pediococcus pentosaceus IM1294 (strain group: non-starter strains) | 4 | 0.06 | 0.5 | 64 | 8 | 64 | 8 | 256 | 8
Limosilactobacillus fermentum IM847 (strain group: human milk or colostrum) | 1 | 0.06 | 0.25 | 4 | 1 | 16 | 2 | 64 | 4
Lactiplantibacillus paraplantarum IM1364 (strain group: non-starter strains) | 0.5 | 8 | 1 | 16 | 2 | 32 | 2 | 128 | 8

Test System | minimum inhibitory concentration (Ampicillin) [µg/mL] | minimum inhibitory concentration (Clindamycin) [µg/mL] | minimum inhibitory concentration (Erythromycin) [µg/mL] | minimum inhibitory concentration (Tetracycline) [µg/mL] | minimum inhibitory concentration (Gentamicin) [µg/mL] | minimum inhibitory concentration (Streptomycin) [µg/mL] | minimum inhibitory concentration (Neomycin) [µg/mL] | minimum inhibitory concentration (Kanamycin) [µg/mL] | minimum inhibitory concentration (Chloramphenicol) [µg/mL]
Limosilactobacillus fermentum IM915 (strain group: human milk or colostrum) | 2 | 0.06 | 0.25 | 4 | 2 | 32 | 2 | 64 | 8
Lactiplantibacillus plantarum IM1285 (strain group: non-starter strains) | 1 | < 0.03 | 0.5 | 16 | 2 | 32 | 2 | 128 | 16
Lacticaseibacillus rhamnosus IM654 (strain group: human intestinal mucosa or faeces) | 1 | 1 | 0.25 | 1 | 8 | 16 | 64 | 128 | 8
Lactiplantibacillus plantarum IM697 (strain group: human intestinal mucosa or faeces) | 0.5 | 2 | 0.5 | 32 | 4 | 64 | 8 | 256 | 8
Lactiplantibacillus plantarum IM1008 (strain group: non-starter strains) | 4 | 0.5 | 0.25 | 1 | 8 | 32 | 16 | 128 | 4
Lacticaseibacillus rhamnosus IM1292 (strain group: non-starter strains) | 1 | 1 | 0.25 | 1 | 4 | 8 | 8 | 64 | 8
Lactiplantibacillus plantarum IM1040 (strain group: non-starter strains) | 1 | 0.12 | 0.12 | 0.5 | 4 | 32 | 8 | 64 | 4
Pediococcus acidilactici/pentosaceus/lolli IM720 (strain group: human milk or colostrum) | 4 | 0.25 | 1 | 64 | 16 | 128 | 32 | 256 | 8
Lacticaseibacillus rhamnosus IM924 (strain group: human milk or colostrum) | 4 | 1 | 0.25 | 1 | 4 | 16 | 8 | 64 | 4
Levilactobacillus brevis IM1146 (strain group: non-starter strains) | 2 | 8 | 0.25 | 8 | 1 | 16 | 2 | 32 | 4
Lacticaseibacillus paracasei IM1355 (strain group: non-starter strains) | 1 | 1 | 0.5 | 2 | 4 | 16 | 8 | 128 | 8
Limosilactobacillus fermentum IM691 (strain group: human intestinal mucosa or faeces) | 0.5 | 0.06 | 0.5 | 16 | 2 | 32 | 2 | 64 | 8
Leuconostoc mesenteroides IM1360 (strain group: non-starter strains) | 2 | 0.12 | 0.25 | 2 | 2 | 64 | 2 | 64 | 8
Limosilactobacillus fermentum IM858 (strain group: human milk or colostrum) | 1 | 0.06 | 0.25 | 4 | 2 | 32 | 2 | 64 | 4
Limosilactobacillus fermentum IM865 (strain group: human milk or colostrum) | 0.5 | 0.06 | 0.25 | 4 | 2 | 32 | 2 | 128 | 8
Leuconostoc citreum IM1322 (strain group: non-starter strains) | 0.5 | 0.12 | 1 | 2 | 2 | 32 | 4 | 32 | 8
Lactiplantibacillus plantarum IM1164 (strain group: non-starter strains) | 1 | 2 | 0.5 | 16 | 8 | 64 | 16 | 256 | 8
Lactiplantibacillus plantarum IM1019 (strain group: non-starter strains) | 0.5 | 1 | 0.5 | 8 | 8 | 64 | 8 | 128 | 8
